# According to PubChem BioAssay AID588855 (National Center for Advancing Translational Sciences (NCATS), 2011):
# Hit rate of the full screen: of about 410,000 compounds, about 5,000 (1.2%) were called active. Inconclusive results, whose numbers are uncertain, are shown with a selection of clear calls. The call rests on the fitted dose curve; in most records, active means well fitted inhibition curve with a large enough effect; inconclusive means small, poorly fitted or top-dose-only effect; inactive means no such curve, though single readings can be large or run the other way. Potencies beside an inconclusive call are fits to weak or partial responses and may not hold up.
# Assay: qHTS for Inhibitors of TGF-b; further: nearly all actives have a fitted effect of over 65% in size
# Conditions: HepG2 CAGA-GFP TGF-b/SMAD3 reporter, GFP fluorescence, 18 h, TGF-beta stimulated, 500 pg/mL final; series mostly up to 46.1 µM; activity, negative = inhibition: at the top concentration
# Outline: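 Per well, imaged GFP fluorescence of HEPG2 CAGA-GFP cells gives the signal; cells get compound, then TGF-beta (500 pg/mL final), 18 h at 37 degrees C; %Activity versus -TGF-beta and +DMSO controls.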
# On the % scale 0 is the no-effect control and ±100 the full control effect; potency means the concentration at half of the fitted maximal effect; tags describe the fitted curve by direction and shape.
SMILES,Potency,"activity, negative = inhibition"
CN[C@H]1CCc2cc(OC)c(OC)c(OC)c2-c2ccc(N(C)CC(OC)OC)c(=O)cc21,"inconclusive: 7.94 µM [inhibitor, partial curve, poor fit]",–
COCCN1C(=O)N(C)[C@@H](c2ccccc2)C(C(C)=O)=C1C,"inconclusive: 2.82 µM [inhibitor, full curve, poor fit]",–
COc1ccc(/C=N\NC(=O)c2ccccc2Br)cc1COc1c(F)c(F)cc(F)c1F,"inconclusive: 3.16 µM [inhibitor, partial curve, poor fit]",–
CCNc1nc(NC(C)C)nc(SCCOC(=O)c2ccccc2)n1,–,inactive: 1.68%
Cc1ccc(CNC(=O)c2ccc3c(c2)nc(C)n3-c2cccc(F)c2)cc1,–,inactive: -1.68%
Cc1ccccc1OCc1nnc(SCc2cc(=O)[nH]c3ccccc23)n1-c1ccccc1,"inconclusive: 7.94 µM [inhibitor, partial curve, poor fit]",–
Nc1ccc(C(=O)NC23CC4CC(CC(C4)C2)C3)cc1,–,inactive: -17.7%
CC(C)(C)c1ccc(C(=O)N2CCOC23CCCCC3)cc1,–,inactive: 12.6%
O=C(N/N=C/c1cccc(NC(=O)c2ccc(Cl)cc2)c1)c1ccc(O)cc1,"inconclusive: 35.5 µM [inhibitor, single point]",–
COc1ccc(-c2nc3cc(C)ccn3c2NCc2ccc3c(c2)OCO3)cc1,"inconclusive: 17.8 µM [inhibitor, single point]",–
Nc1nc(N)nc(-c2cc(O)ccc2O)n1,"inconclusive: 5.62 µM [inhibitor, partial curve, poor fit]",–
COc1cccc(CC(=O)Nc2ccc3c(c2)c(=O)n(C)n3-c2ccc(C(C)(C)C)cc2)c1,"inconclusive: 35.5 µM [inhibitor, single point]",–
OC(c1ccccc1)(c1nc(-c2cccc(F)c2)cs1)C(F)(F)F (configuration not stated),"inconclusive: 14.1 µM [inhibitor, single point]",–
Cc1cc(C)nc(/N=C(\N)Nc2ccc(-c3ccccc3)cc2)n1,"inconclusive: 12.6 µM [inhibitor, partial curve, poor fit]",–
COc1ccc(C(=O)/C=C/c2ccc(OC3CSC3)cc2)cc1,"inconclusive: 35.5 µM [inhibitor, single point]",–
COC(=O)c1ccc(OCC2c3cc(OC)c(OC)cc3CCN2C(=O)Cc2ccc(OC)cc2)cc1 (configuration not stated),–,inactive: 1.17%
CCCC/C=C/[C@H](c1ccccc1)[C@H](CO)Cc1ccc([N+](=O)[O-])cc1,"inconclusive: 20 µM [inhibitor, partial curve, poor fit]",–
CCOC(=O)c1c(C)n(-c2ccc(C)cc2)c2c(C(C(C)=O)C(=O)O)c(Br)c(O)c(O)c12 (configuration not stated),"inconclusive: 3.16 µM [inhibitor, partial curve, poor fit]",–
CC1=CC2=NC(=O)/C(=C\c3cccn3CCOc3ccccc3C)C(=N)N2O1,"inconclusive: 11.2 µM [inhibitor, partial curve]",–
CCCCn1c(-c2ccccc2C)nc2cc3[nH]c(=O)c(C(C)C)nc3cc21,"inconclusive: 20 µM [inhibitor, single point]",–
CCC1(CC)NC(=O)N(CC(=O)N2N=C(c3ccc(Cl)cc3)CC2c2ccco2)C1=O (configuration not stated),"inconclusive: 15.8 µM [inhibitor, single point]",–

SMILES,Potency,"activity, negative = inhibition"
Oc1nc(Nc2ccc(F)cc2)sc1/C=C1\C=Nc2ccccc21,"inconclusive: 12.6 µM [inhibitor, single point]",–
Cc1cccc(NC(=O)CSc2cn(CC(=O)N3CCCCCC3)c3ccccc23)c1,–,inactive: -19.2%
O=C(CCl)Nc1cccc(S(=O)(=O)N2CCCCCC2)c1,"inconclusive: 35.5 µM [inhibitor, single point]",–
CC(C)C[C@H](NC(=O)N1CCn2c1nc1ccccc12)C(=O)N[C@@H](C(=O)O)c1ccccc1,–,inactive: 3.58%
COc1cccc(-c2cc3nc(Nc4ccc(OC)c(OC)c4)n(C)c(=O)c3s2)c1,"inconclusive: 11.2 µM [inhibitor, single point]",–
COc1ccc(C=O)cc1C1=CC(=O)C[C@H](c2ccc(Cl)cc2)C1,"inconclusive: 11.2 µM [inhibitor, single point]",–
COc1ccc(Cl)cc1NC(=O)c1cc(S(=O)(=O)NC2CCCCCC2)ccc1F,"inconclusive: 5.62 µM [inhibitor, full curve, poor fit]",–
O=c1cc(-c2ccccc2Cl)oc2c(NS(=O)(=O)c3cccc4nsnc34)ccc(O)c12,"inconclusive: 15.8 µM [inhibitor, single point]",–
c1ccc2c(CCc3c[nH]c4ccccc34)ccnc2c1,"inconclusive: 17.8 µM [inhibitor, single point]",–
O=C1c2cccc(OCc3ccc(F)cc3)c2CCN1Cc1ccc(F)cc1,active: 6.31 µM,–
COc1ccc(N2CCN(C(=O)Cc3ccc(OC)c(OC)c3)CC2)cc1,–,inactive: -14.7%
CN(C)S(=O)(=O)N(CC(=O)NCCSCc1ccccc1)c1ccccc1,"inconclusive: 25.1 µM [inhibitor, single point]",–
Cc1ccc2nc(-c3ccncc3)c(NC3CCCCC3)n2c1,–,inactive: -0.512%
CC1(C(=O)O)CCCN1C(=O)c1ccco1 (configuration not stated),–,inactive: -15%
CC(=O)c1c(C)[nH]c(C(=O)CSc2nnc(-c3ccccc3)o2)c1C,–,inactive: -30.1%
COc1ccccc1CNC(=O)COC(=O)c1n[nH]c2ccccc12,"inconclusive: 35.5 µM [inhibitor, single point]",–
COc1ccc(C(C)C)cc1S(=O)(=O)N1CCN(c2ccccc2)CC1,"inconclusive: 35.5 µM [inhibitor, single point]",–
COc1ccccc1N1CCN(C(=O)CSc2nnc3c4ccccc4n(CC(=O)O)c3n2)CC1,–,inactive: -27.9%
CC(C)NS(=O)(=O)c1ccc(CCC(=O)NCc2ccncc2)cc1,–,inactive: -0.95%
Cc1ccc(NC(=O)c2ccc(-c3cccc(Cl)c3C)o2)cc1,"inconclusive: 11.2 µM [inhibitor, partial curve]",–
Cc1ccc2c(c1)-c1c(ssc1=S)C(C)(C)N2C(=O)c1ccco1,"inconclusive: 15.8 µM [inhibitor, single point]",–
